Measured values from the supplement of paper PMC7266297.
Counter-ions that a name gives are not always drawn. The list shows a part of the results. Single values are uncertain, as repeats are few or missing.

Assays:
[1] = test system: KB-3-1; experiment: growth inhibition relative to DMSO control (SRB); cervical cancer cells: KB-3-1 is the parent and KB-V1 overexpresses MDR1; SRB is the sulforhodamine B stain; higher = more growth inhibition; settings: 1 µM; 72 h
[2] = test system: KB-V1; experiment: as above; settings: 1 µM; 72 h
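Note: Read-out is SRB optical density at 490 nm, with the control being wells given 0.5% DMSO vehicle, and compound added one day after cells were plated.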

Compound	growth inhibition [1]	growth inhibition [2]
CCc1cccc2c3c([nH]c12)C(CC)(CC(=O)O)OCC3 (stereo not given) [Etodolac]	9.05%	32.7%
O=c1n(CCCN2CCN(c3cccc(Cl)c3)CC2)nc2ccccn12 [Trazodone HCl]	27.5%	13.8%
N=C(N)N/N=C/c1c(Cl)cccc1Cl [Guanabenz Acetate]	25.6%	13.1%
N#C/C(=C\c1ccc(O)c(O)c1)C(=O)NCc1ccccc1 [AG-490 (Tyrphostin B42)]	33.5%	35.4%
CCc1cncnc1N1CCN(Cc2nc3ccc(C(F)(F)F)cc3[nH]2)CC1	87.9%	47.7%
COc1cc2nccc(Oc3ccc(NC(=O)C4(C(=O)Nc5ccc(F)cc5)CC4)cc3)c2cc1OC	38.1%	61.6%
Cn1cnc2c(F)c(Nc3ccc(Br)cc3F)c(C(=O)NOCCO)cc21	11%	3.19%
Cc1cc2c(F)c(Oc3ncnn4cc(OC[C@@H](C)OC(=O)[C@H](C)N)c(C)c34)ccc2[nH]1	29.7%	32.4%
CCc1nc(-c2cccc(C)c2)c(-c2ccnc(NC(=O)c3ccccc3)c2)s1	< 0%	11.3%
CC(=O)[C@H]1CC[C@H]2[C@@H]3CC=C4C[C@@H](O)CC[C@]4(C)[C@H]3CC[C@]12C [Pregnenolone]	50.2%	24.5%
NC(=O)c1noc([C@H](CCCC2CCCCC2)CC(=O)NO)n1	< 0%	2.8%
COc1ccc(CCC(=O)Nc2nc3ccc(Cl)cc3s2)cc1OC	14.9%	9.32%
CN1[C@@H]2CC[C@H]1C[C@@H](OC(=O)c1c[nH]c3ccccc13)C2 [Tropisetron]	48.3%	22.8%
CC(C)(C)NS(=O)(=O)c1cncc(-c2cc(F)c3nc(N)nn3c2)c1	45.2%	18.4%
N#Cc1c(Oc2ccc(F)c(NC(=O)Cc3cccc(C(F)(F)F)c3)c2)ccc2nc(NC(=O)C3CC3)sc12	< 0%	< 0%
Cc1c(Cc2ccc3ccccc3n2)c2cc(F)ccc2n1CC(=O)O	2.38%	11.9%
Cc1ccc2c(c1)C(=O)C1(O)CCN(c3ccccc3)C1=N2 (single isomer, unassigned; (-)) [(-)-Blebbistatin]	13.7%	1.41%
CCCSc1nc(N[C@@H]2C[C@H]2c2ccc(F)c(F)c2)c2nnn([C@@H]3C[C@H](OCCO)[C@@H](O)[C@H]3O)c2n1 [Ticagrelor]	35.4%	13.8%
CC(=O)O[C@H]1CC[C@@]2(C)C(=CC[C@@H]3[C@@H]2CC[C@]2(C)C(c4cccnc4)=CC[C@@H]32)C1 [Abiraterone Acetate]	< 0%	14%
CC(=O)N[C@@H](CS)C(=O)O [Acetylcysteine]	21.8%	13.5%
Cc1ccc(C(=O)Nc2ccc(CN3CCN(C)CC3)c(C(F)(F)F)c2)cc1C#Cc1cnc2cccnn12	81.6%	97.2%
COc1cc2ncnc(Nc3ccc(Cl)cc3F)c2cc1OC	24.7%	10%
CC(C)(C#N)c1ccc(N2C(=O)OCc3cnc4ccc(-c5cnc6ccccc6c5)cc4c32)cc1	79.4%	48.6%
COc1cc(Nc2ncc3c(n2)-c2ccc(Cl)cc2C(c2c(F)cccc2OC)=NC3)ccc1C(=O)O [Alisertib (MLN8237)]	69.1%	89.5%
CCC1=C(C)CN(C(=O)NCCc2ccc(S(=O)(=O)NC(=O)N[C@H]3CC[C@H](C)CC3)cc2)C1=O [Glimepiride]	19.6%	35.8%

Compound	growth inhibition [1]	growth inhibition [2]
CN1CCc2nc(C(=O)N[C@@H]3C[C@@H](C(=O)N(C)C)CC[C@@H]3NC(=O)C(=O)Nc3ccc(Cl)cn3)sc2C1 [Edoxaban]	0.459%	< 0%
Cc1ccc(Nc2c(F)cccc2Cl)c(CC(=O)O)c1 [Lumiracoxib]	< 0%	2.58%
c1cncc(CN2CCC(n3ncc4c(N5CCOCC5)nc(-c5ccc6[nH]ccc6c5)nc43)CC2)c1	< 0%	34.3%
CC(=O)[C@]1(O)Cc2c(O)c3c(c(O)c2[C@@H](O[C@H]2C[C@H](N)[C@H](O)[C@H](C)O2)C1)C(=O)c1ccccc1C3=O [Idarubicin HCl]	87%	64%
NCCc1ccc(O)c(O)c1 [Dopamine HCl]	27.8%	3.19%
Cc1ccc(S(=O)(=O)/C=C/C#N)cc1	< 0%	12%
O=C(O)c1ccc(N2C(=O)/C(=C\c3ccc(-c4ccc([N+](=O)[O-])cc4)o3)C=C2c2ccccc2)cc1	< 0%	< 0%
C=CC(=O)Nc1cccc(Nc2nc(Nc3ccc(N4CCN(C(C)=O)CC4)cc3OC)ncc2C(F)(F)F)c1	< 0%	< 0%
NC(=O)N1c2ccccc2C=Cc2ccccc21 [Carbamazepine]	36.3%	12.2%
CCn1c2ccccc2c2cc(Nc3ccnc(NCCCN4CCOCC4)n3)ccc21	2.29%	< 0%
C[C@]1(O)C[C@@H](c2nc(-c3ccc4ccc(-c5ccccc5)nc4c3)c3c(N)nccn32)C1 [OSI-906 (Linsitinib)]	60.9%	58.8%
Cc1ccc(=O)n(-c2ccccc2)c1 [Pirfenidone]	< 0%	12.4%
O=C(O)Cc1ccccc1Nc1c(Cl)cccc1Cl [Diclofenac Sodium]	44.6%	20.3%
N#Cc1cc(CN2CCC(Nc3ncnc4sc(Cl)cc34)CC2)ccc1F	37.9%	10.5%
NC(=O)c1ccc(I)c([N+](=O)[O-])c1 [Iniparib (BSI-201)]	11%	18.9%
Clc1ccccc1CN1CCc2sccc2C1 [Ticlopidine HCl]	43.4%	20.6%
CNC(=O)c1cc(Oc2ccc(NC(=O)Nc3ccc(Cl)c(C(F)(F)F)c3)c(F)c2)ccn1 [Regorafenib (BAY 73-4506)]	24.9%	31.9%
Nc1cc(F)ccc1NC(=O)/C=C/c1cnn(C/C=C/c2ccccc2)c1	< 0%	< 0%
CC1(C)O[C@@H]2[C@@H](CO[C@@]3(COS(N)(=O)=O)OC(C)(C)O[C@@H]23)O1 [Topiramate]	14.1%	31%
CN1CCC(=C2c3ccccc3C=Cc3ccccc32)CC1 [Cyproheptadine HCl]	24.5%	26.7%
Nc1ccn([C@H]2CC[C@@H](CO)O2)c(=O)n1 [Zalcitabine]	44.9%	15.9%
O=C(O)CCc1ccc(NCc2cccc(Oc3ccccc3)c2)cc1	40.7%	1.85%
C=CC(=O)Nc1cccc(Sc2nc(Nc3ccc(N4CCN(C)CC4)cc3)ncc2Cl)c1	73.5%	72.8%
COc1ccccc1N1CCN(CC(O)COc2cccc3ccccc23)CC1 (stereo not given) [Naftopidil DiHCl]	8.77%	38.1%
CC(C)(Oc1ccc(C2CC2(Cl)Cl)cc1)C(=O)O (stereo not given) [Ciprofibrate]	11.1%	12.5%

Compound	growth inhibition [1]	growth inhibition [2]
N[C@@]1(C(=O)O)CS(=O)(=O)[C@H]2[C@H](C(=O)O)[C@H]21	36.2%	14.5%
NC12CC3CC(CC(C3)C1)C2 [Amantadine HCl]	28.7%	13.8%
Nc1nc(N)c2nc(-c3cccc(O)c3)cnc2n1	62.6%	39.7%
CCCOc1ccc(C(=O)OCCN(CC)CC)cc1N [Proparacaine HCl]	49.5%	24.3%
CCCc1nc(C(C)(C)O)c(C(=O)OCc2oc(=O)oc2C)n1Cc1ccc(-c2ccccc2-c2nnn[nH]2)cc1 [Olmesartan Medoxomil]	27.6%	11%
C[C@@H]1CN(CC(=O)Nc2ccc3c(c2)Cc2cccc(-c4cc(=O)cc(N5CCOCC5)o4)c2S3)C[C@H](C)O1	31.1%	15.3%
CCn1c(N)c(C(=O)NC)c(=O)c2ccc(C#CC(C)(O)COC)nc21 (stereo not given)	15.1%	11.9%
Oc1c2ccccc2c2c3c(cccc13)N=N2	42.6%	23.9%
CC(C(=O)O)c1cccc(C(=O)c2ccccc2)c1 (stereo not given) [Ketoprofen]	35.3%	12.2%
Nc1ccn([C@@H]2O[C@H](CO)[C@@H](O)C2(F)F)c(=O)n1 [Gemcitabine]	80.1%	48.6%
Cc1ccc(C(=O)N(CCCN)[C@@H](c2oc3cc(Cl)ccc3c(=O)c2Cc2ccccc2)C(C)C)cc1	78%	100%
CC(=O)N1CCN(CCOc2ccc(C3CCN(C4=Nn5c(nnc5C(F)(F)F)CC4)CC3)cc2)CC1	21.3%	31.2%
COc1ccc(S(=O)(=O)N(C(C)=O)c2ccccc2/C=C/c2cc[n+]([O-])cc2)cc1	97.4%	73%
CC(C)C[C@H](NC(=O)[C@H]1O[C@@H]1C(=O)O)C(=O)NCCCCN=C(N)N	51.1%	0.617%
CN1CCc2c(c3ccccc3n2Cc2ccc(C(=O)NO)cc2)C1 [Tubastatin A]	37.3%	0.617%
CC(C)CC(=O)Nc1n[nH]c2c1CN(C(=O)C1CCN(C)CC1)C2(C)C	95.3%	39%
CCCCN1CCCCC1C(=O)Nc1c(C)cccc1C (stereo not given) [Bupivacaine HCl]	30.4%	24%
CNC[C@H](O)c1cccc(O)c1 [Phenylephrine HCl]	26.9%	< 0%
CC1(C)CCC2=C(O1)c1ccccc1C(=O)C2=O [Beta-Lapachone]	0.442%	1.77%
Cc1cnc(Nc2ccc(N3CCN(C)CC3)cc2)nc1Nc1cccc(S(=O)(=O)NC(C)(C)C)c1	< 0%	26.9%
CCOC(=O)N1CCC(=C2c3ccc(Cl)cc3CCc3cccnc32)CC1 [Loratadine]	10.6%	39.6%
N#Cc1c(O)c2c(-c3ccc(-c4ccccc4O)cc3)csc2[nH]c1=O	< 0%	22.8%
COCCOC(=O)C1=C(C)NC(C)=C(C(=O)OC/C=C/c2ccccc2)C1c1cccc([N+](=O)[O-])c1 (stereo not given) [Cilnidipine]	14.4%	35.9%
O=c1cc(N2CCOCC2)oc2c(-c3ccccc3)cccc12	8.73%	29.8%
Cc1ccccc1C(=O)Nc1ccc(C(=O)N2CCCC(O)c3cc(Cl)ccc32)c(C)c1 (stereo not given) [Tolvaptan]	21.6%	4.26%
